Sequences and labels used below:
B1: TPR 5TU (parent)
chain: GGAUCUUCUCGAUCUAACAAAAAAGACAAAUCUGCCACAAAGCUUGAGAGCAUCUUCGGAUGCAGAGGCGGCAGCCUUCGGUGGCGCGAUAGCGCCAACGUUCUCAACUAUGACACGCAAAACGCGUGCUCCGUUGAAUGGAGUUUAUCAUG

Variants at the floor of the assay are shown more often than the library holds them.

Variants of B1 are the subject of the data set. In words: polymerase ribozyme fitness, log enrichment relative to wild type (log ratio); higher = more active; in vitro selection for triplet polymerase activity. A digest of the protocol:
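Each subunit of a heterodimeric triplet polymerase ribozyme was represented by a PCR-built, transcribed mutant library that underwent triplicate single-round in vitro selection with frozen incubation at −7 °C. Extended constructs were recovered by gel excision, streptavidin-bead capture and RT-PCR, and Illumina sequencing of input and output libraries kept genotypes with ≥10 input reads and ≥1 read per output. Fitness is the logarithm of genotype enrichment relative to wild-type enrichment, from inverse-variance-weighted replicate averages, with a logarithm base of 2.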
Consider A26G A29C C79A G100A, for which the “polymerase ribozyme fitness (log ratio)” value was at most -4.2.

In the case of A26C U31G C32G U45A G94U U101A C103G U148A, the “polymerase ribozyme fitness (log ratio)” value is at most -4.2.

As to A26C A30C U45A C54G G92A U104G A147G, the “polymerase ribozyme fitness (log ratio)” value is at most -4.2.

For the variant A26U A28U A47C C57U A66G C96G, the “polymerase ribozyme fitness (log ratio)” value is at most -4.2.

Take A26U A52C C96A: the “polymerase ribozyme fitness (log ratio)” value was -3.2.

Consider A26C A91C A97U C105G, for which the “polymerase ribozyme fitness (log ratio)” value is at most -4.2.

As to G25U G48A G74U G88U, the “polymerase ribozyme fitness (log ratio)” value was at most -4.2.

Turning to A26G G42U G48C G50U G84C C87G, the “polymerase ribozyme fitness (log ratio)” value was at most -4.2.

Regarding A26C G68C G86A C93G, the “polymerase ribozyme fitness (log ratio)” value is at most -4.2.

As for A26C U53G G86A C87U, the “polymerase ribozyme fitness (log ratio)” value was at most -4.2.

As for A26G C54U G59U G81A G128C, the “polymerase ribozyme fitness (log ratio)” value is at most -4.2.

With G25U C36U G67C C85G C87U A89U, the “polymerase ribozyme fitness (log ratio)” value was at most -4.2.

Consider A26C A30U G58U G84A G128A A150C, for which the “polymerase ribozyme fitness (log ratio)” value is at most -4.2.

In the case of A26G G48A, the “polymerase ribozyme fitness (log ratio)” value is at most -4.2.

As to A26G A40C U55A C96A G100C C103G, the “polymerase ribozyme fitness (log ratio)” value was at most -4.2.

Consider G25C G86A G94U, for which the “polymerase ribozyme fitness (log ratio)” value was -3.91.

For the variant G25U G70A U77G C87A C93A C105U U134G, the “polymerase ribozyme fitness (log ratio)” value was at most -4.2.

As to A26G U53A C85U A91G G133A U139A, the “polymerase ribozyme fitness (log ratio)” value is at most -4.2.

As to G25U C76G G84U G136U C149U, the “polymerase ribozyme fitness (log ratio)” value was at most -4.2.

As for A26C A64G G83U C85G A115G, the “polymerase ribozyme fitness (log ratio)” value is at most -4.2.

As for A26U A41C G84C G140A, the “polymerase ribozyme fitness (log ratio)” value was at most -4.2.

On to G25U G65C U109G A121C, for which the “polymerase ribozyme fitness (log ratio)” value was at most -4.2.

A26U A52G G74C U127A C132U U139C: the “polymerase ribozyme fitness (log ratio)” value is at most -4.2.

As to A26C C35U G88U C96G C108U G143A, the “polymerase ribozyme fitness (log ratio)” value is at most -4.2.

Turning to A26G U53A U82G C96U A113C, the “polymerase ribozyme fitness (log ratio)” value is at most -4.2.

Consider A26C G117C, for which the “polymerase ribozyme fitness (log ratio)” value is -2.51.

A26G C57U C87A C114G C116U U134G: the “polymerase ribozyme fitness (log ratio)” value is at most -4.2.

A26G A40C C79U A98U C149G: the “polymerase ribozyme fitness (log ratio)” value is at most -4.2.

Take G25U C85G: the “polymerase ribozyme fitness (log ratio)” value is -3.79.

For G25U A29U C43A A64U C93U C131U, the “polymerase ribozyme fitness (log ratio)” value was at most -4.2.

For A26G A49U C85U A107G, the “polymerase ribozyme fitness (log ratio)” value is at most -4.2.

For A26C C35A A37U G88A C105A, the “polymerase ribozyme fitness (log ratio)” value was at most -4.2.

Take A26G U44A C54U C72A U90A A115G C118U: the “polymerase ribozyme fitness (log ratio)” value is at most -4.2.

Take A26U C35U C87A G124C: the “polymerase ribozyme fitness (log ratio)” value was at most -4.2.

Turning to A26C U61A A64U C85A A110C, the “polymerase ribozyme fitness (log ratio)” value was at most -4.2.

Turning to A26C C35U C108U, the “polymerase ribozyme fitness (log ratio)” value was at most -4.2.

For A26G G83C C96U A147U G152A, the “polymerase ribozyme fitness (log ratio)” value was at most -4.2.

Take A26C A40G U61G C96U A115G: the “polymerase ribozyme fitness (log ratio)” value was at most -4.2.

As to A26C G46C C132G, the “polymerase ribozyme fitness (log ratio)” value is at most -4.2.

With A26U A28C U56G C85U G133U G143C, the “polymerase ribozyme fitness (log ratio)” value was at most -4.2.

For A26C C36G C99G A106C A107U U109G U148G, the “polymerase ribozyme fitness (log ratio)” value is at most -4.2.

For A26C U31C C51U C79U U134G, the “polymerase ribozyme fitness (log ratio)” value was at most -4.2.

Regarding G25U A26C C27U G83C U109A, the “polymerase ribozyme fitness (log ratio)” value was at most -4.2.

In the case of A26G A73U A137C A150G, the “polymerase ribozyme fitness (log ratio)” value is at most -4.2.

For A26C C27G C63A, the “polymerase ribozyme fitness (log ratio)” value was at most -4.2.

In the case of A26U C35A U104G A150C, the “polymerase ribozyme fitness (log ratio)” value is at most -4.2.

As for A26U A73G C85G C118A C125G, the “polymerase ribozyme fitness (log ratio)” value is at most -4.2.

For A26G A60C U82G U101G C116G C125A A138G, the “polymerase ribozyme fitness (log ratio)” value is at most -4.2.

With G25C C87G A98U G100A, the “polymerase ribozyme fitness (log ratio)” value was at most -4.2.

Consider G25U A47U A52G G81A G86C A98G G133U G136C G143U, for which the “polymerase ribozyme fitness (log ratio)” value was at most -4.2.

For the variant G25C U33C G50A C72U C87A A97G U111A, the “polymerase ribozyme fitness (log ratio)” value is at most -4.2.

For the variant A26G A28C C36U C54G C85G C108U G133C, the “polymerase ribozyme fitness (log ratio)” value was at most -4.2.

For the variant G25C U31A C72G U130G A147U A150C, the “polymerase ribozyme fitness (log ratio)” value is at most -4.2.

Turning to G25U C54G G74A C96A A138C, the “polymerase ribozyme fitness (log ratio)” value was at most -4.2.

As for A26C U144C, the “polymerase ribozyme fitness (log ratio)” value was -2.23.

Consider G25U G58C G62A A73G G88C C96G, for which the “polymerase ribozyme fitness (log ratio)” value was at most -4.2.

With A26G C35A C79G G94C, the “polymerase ribozyme fitness (log ratio)” value was at most -4.2.

As for A26C C36A A37U A66G U90C, the “polymerase ribozyme fitness (log ratio)” value is at most -4.2.

Take A26C A66C G81C G83C: the “polymerase ribozyme fitness (log ratio)” value is -4.1.

For A26U C36G U134A G143U U144C, the “polymerase ribozyme fitness (log ratio)” value is at most -4.2.

In the case of A26C A49C A52U A73G U148A A150C, the “polymerase ribozyme fitness (log ratio)” value is at most -4.2.

For A26C G46A C54U U56A G92C C95U C99G A115U U135C, the “polymerase ribozyme fitness (log ratio)” value was at most -4.2.

On to G25U G81A G94U A120U G141C, for which the “polymerase ribozyme fitness (log ratio)” value was -3.76.

Turning to A26U A91G U127C, the “polymerase ribozyme fitness (log ratio)” value is at most -4.2.

As for A26G A66U C85A C95A G124C C131A, the “polymerase ribozyme fitness (log ratio)” value was at most -4.2.

Consider G25C U82A G94U C118U G143U, for which the “polymerase ribozyme fitness (log ratio)” value was at most -4.2.

Consider A26G C57A C79A U82G C87G G92C G100A A106G C114G, for which the “polymerase ribozyme fitness (log ratio)” value was at most -4.2.

As for G25U A66G G92A C125U A150C, the “polymerase ribozyme fitness (log ratio)” value is at most -4.2.

For the variant A26U A39C A49C A106G U135C, the “polymerase ribozyme fitness (log ratio)” value is at most -4.2.

A26C U53A C57A C96U U101G C108A A115U G133A A150G: the “polymerase ribozyme fitness (log ratio)” value is at most -4.2.

Take A26G C27U A47G C54A U56G G86A: the “polymerase ribozyme fitness (log ratio)” value is at most -4.2.

For the variant A26U A29C C51U G59A A60G U134C, the “polymerase ribozyme fitness (log ratio)” value was at most -4.2.

Turning to G25U C93A, the “polymerase ribozyme fitness (log ratio)” value is at most -4.2.

As to A26C G48A C85U C105U, the “polymerase ribozyme fitness (log ratio)” value was at most -4.2.

On to A26G A49U G59A G74C, for which the “polymerase ribozyme fitness (log ratio)” value was at most -4.2.

Take A26U A39C A49G G128A A138G: the “polymerase ribozyme fitness (log ratio)” value was at most -4.2.

Turning to A26G G50U A52G G74A C76U, the “polymerase ribozyme fitness (log ratio)” value is at most -4.2.

As for G25U A30C A47C C99G U101G C105A, the “polymerase ribozyme fitness (log ratio)” value is at most -4.2.

Regarding A26G G42C C95U A150U, the “polymerase ribozyme fitness (log ratio)” value is at most -4.2.

Turning to A26U C32G U45C G50C U53G G84A C99U A137G, the “polymerase ribozyme fitness (log ratio)” value is at most -4.2.

Regarding A26C A28U A39C A73U G88A C95U C108G G128U G136A, the “polymerase ribozyme fitness (log ratio)” value was at most -4.2.

G25U C76G C96A G140U G141A: the “polymerase ribozyme fitness (log ratio)” value is at most -4.2.

On to G25U C54G G74U U82G C85U C131A U144A, for which the “polymerase ribozyme fitness (log ratio)” value is at most -4.2.

For the variant G25U G59A G62C C116U U145A, the “polymerase ribozyme fitness (log ratio)” value is -1.79.

Source of the values: the RNAGym collection of RNA variant scans (doi:10.1073/pnas.2313332121).
